The record followed here is paper PMC2362126.

Protein sequences, listed by entry. Tags and fused reporters are not part of them.
UniProt O96390: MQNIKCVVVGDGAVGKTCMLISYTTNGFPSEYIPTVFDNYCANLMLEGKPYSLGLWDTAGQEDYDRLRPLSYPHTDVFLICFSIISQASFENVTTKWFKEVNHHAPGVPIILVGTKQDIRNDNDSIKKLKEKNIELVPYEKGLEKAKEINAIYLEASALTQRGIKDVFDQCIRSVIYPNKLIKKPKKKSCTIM
UniProt P34149: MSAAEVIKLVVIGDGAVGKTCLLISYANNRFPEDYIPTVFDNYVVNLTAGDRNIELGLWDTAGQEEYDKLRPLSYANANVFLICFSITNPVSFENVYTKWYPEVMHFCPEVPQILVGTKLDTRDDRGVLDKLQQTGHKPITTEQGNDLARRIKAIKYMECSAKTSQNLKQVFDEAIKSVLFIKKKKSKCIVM
UniProt P34148: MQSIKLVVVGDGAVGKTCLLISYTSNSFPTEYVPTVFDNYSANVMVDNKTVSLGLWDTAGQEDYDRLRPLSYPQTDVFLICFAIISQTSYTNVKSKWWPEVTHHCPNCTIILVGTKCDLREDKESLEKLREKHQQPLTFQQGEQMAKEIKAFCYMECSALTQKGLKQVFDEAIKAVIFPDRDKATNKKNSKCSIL
UniProt P19073: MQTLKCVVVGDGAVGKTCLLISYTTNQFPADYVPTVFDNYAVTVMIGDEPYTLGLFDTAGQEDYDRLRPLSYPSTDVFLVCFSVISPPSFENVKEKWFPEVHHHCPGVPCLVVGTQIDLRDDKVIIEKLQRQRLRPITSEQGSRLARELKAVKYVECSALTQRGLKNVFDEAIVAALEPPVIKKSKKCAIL

No constants are given. Whether binding was seen depends on the method and setting. Some entries that bind do so weakly or less than the wild type. Where a sequence is shown, tags or fusion partners need not be part of it.

Experiment [1] concerns the target T1, D. discoideum RacE, two-hybrid fusion in pAS2-1 (D. discoideum) (UniProt Q23862).
T1 sequence: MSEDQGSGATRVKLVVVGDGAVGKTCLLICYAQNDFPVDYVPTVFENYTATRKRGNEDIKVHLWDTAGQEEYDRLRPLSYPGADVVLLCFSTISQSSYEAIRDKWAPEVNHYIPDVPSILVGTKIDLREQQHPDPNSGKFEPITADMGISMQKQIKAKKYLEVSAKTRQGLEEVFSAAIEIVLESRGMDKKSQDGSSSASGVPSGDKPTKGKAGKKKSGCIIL
In words: two-hybrid; Matchmaker system (Clontech), Y190 yeast; RhoGDIs in pGADT7 or pACT2, Rho GTPases in pGBKT7 or pAS2-1; growth on -Trp/-Leu/-His/+3AT and colony-lift β-galactosidase assays.

In experiment [2] the target is D. discoideum RacF1, two-hybrid fusion in pAS2-1 (D. discoideum) (UniProt O96390). Described as above.
For experiment [3], the target named is D. discoideum RacC, two-hybrid fusion in pAS2-1 (D. discoideum) (UniProt P34149). Described as above.
Experiment [4] deals with D. discoideum RacB, two-hybrid fusion in pAS2-1 (D. discoideum) (UniProt P34148). The description is as above.
Experiment [5] has as its target S. cerevisiae Cdc42, two-hybrid fusion in pGBKT7 (S. cerevisiae) (UniProt P19073). Described as above.
For experiment [6], the target named is D. discoideum Rac1a, two-hybrid fusion in pAS2-1 (D. discoideum) (UniProt P34144). The description is as above.
Experiment [7] concerns the target D. discoideum Rac1c, two-hybrid fusion in pAS2-1 (D. discoideum) (UniProt P34146). In words: two-hybrid; as the two-hybrid assay of Fig. 5A (Y190 yeast, colony-lift β-galactosidase); DdRac1b and DdRac1c, result not shown.
Experiment [8] concerns the target D. discoideum Rac1b, two-hybrid fusion in pAS2-1 (D. discoideum) (UniProt P34145). The experiment is described as above.
Experiment [9] has as its target human RhoA, two-hybrid fusion in pAS2-1 (human), P61586. In words: two-hybrid; Matchmaker system (Clontech), Y190 yeast; RhoGDIs in pGADT7 or pACT2, Rho GTPases in pGBKT7 or pAS2-1; growth on -Trp/-Leu/-His/+3AT and colony-lift β-galactosidase assays. The conditions noted are these: remark: other sources report otherwise.
In experiment [10] the target is human Cdc42, two-hybrid fusion in pAS2-1 (human), P60953. The experiment is described as above. The settings on record: remark: other sources report otherwise.

B1: human LyGDI (RhoGDI2), two-hybrid fusion in pACT2 (protein, UniProt P52566 1-201)
chain: MTEKAPEPHVEEDDDDELDSKLNYKPPPQKSLKELQEMDKDDESLIKYKKTLLGDGPVVTDPKAPNVVVTRLTLVCESAPGPITMDLTGDLEALKKETIVLKEGSEYRVKIHFKVNRDIVSGLKYVQHTYRTGVKVDKATFMVGSYGPRPEEYEFLTPVEEAPKGMLARGTYHNKSFFTDDDKQDHLSWEWNLSIKKEWTE
Consider B1, for which the binding result in experiment [1] is reported as “no binding”; in experiment [2] it was “no binding”; in [3] it was “no binding”; in experiment [4] it was “binds”; in [5], “binds”; in experiment [6] it was “binds”. Moreover, the binding result in [7] and in experiment [8] was “binds” throughout.

B2: human LyGDI (RhoGDI2), two-hybrid fusion in pACT2, P52566 1-201 (protein)
chain: B1 chain
With B2, the binding entry in [9] and in [10] was “binds” in each case.
